# This is one part of the list.
# B1: BC2LB (Burholderia cenocepacia), B4EH85_BURCJ (protein)
# chain: MGSSHHHHHHSSGENLYFQGHMSQPFTHDDLYALLQLAGNDATAVQANGDQAVLDRMRQFMTAQLVEKLPQYDVFVDIATIPYSFDVGSWQNKVKTDAAGEVVACTVTWAGAPGVLPGAAAKFGVGAVVNYFSKATPH
# Legend:
# Assay in all cases: glycan array binding signal (z-score within array); higher = stronger binding
# Conditions in all cases: glycan notation: IUPAC condensed, linker removed
# [1] = target: Fuc(a1-2)Gal(b1-4)GlcNAc(b1-3)Gal(b1-4)GlcNAc(b1-2)Man(a1-3)[Fuc(a1-2)Gal(b1-4)GlcNAc(b1-3)Gal(b1-4)GlcNAc(b1-2)Man(a1-6)]Man(b1-4)GlcNAc(b1-4)GlcNAc
# Method in brief: (§1)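 Negative Z-scores can be read as non-binding. The Z-score is calculated within each array and then averaged across arrays of one protein sequence at different concentrations or buffers and across linkers. Arrays, 3228 in all, were curated from the Consortium for Functional Glycomics database and kept only where the protein sequence was available.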
# [2] = target: Fuc(a1-2)Gal(b1-4)GlcNAc(b1-3)Gal(b1-4)GlcNAc(b1-3)Gal(b1-4)GlcNAc
# Method in brief: as §1
# [3] = target: Fuc(a1-2)Gal(b1-4)GlcNAc(b1-3)GalNAc
# Method in brief: as §1
# [4] = target: Fuc(a1-2)Gal(b1-4)GlcNAc(b1-3)[Fuc(a1-2)Gal(b1-4)GlcNAc(b1-6)]GalNAc
# Method in brief: as §1
# [5] = target: Fuc(a1-2)Gal(b1-4)GlcNAc(b1-3)[Fuc(a1-3)[Gal(b1-4)]GlcNAc(b1-6)]Gal(b1-4)Glc
# Method in brief: as §1
# [6] = target: Fuc(a1-2)Gal(b1-4)GlcNAc(b1-6)GalNAc
# Method in brief: as §1
# [7] = target: Fuc(a1-2)Gal(b1-4)GlcNAc6S
# Method in brief: as §1
# [8] = target: Fuc(a1-2)Gal(b1-4)[Fuc(a1-3)]GlcNAc
# Method in brief: as §1
# [9] = target: Fuc(a1-2)Gal(b1-4)[Fuc(a1-3)]GlcNAc(b1-2)Man(a1-3)[Fuc(a1-2)Gal(b1-4)[Fuc(a1-3)]GlcNAc(b1-2)Man(a1-6)]Man(b1-4)GlcNAc(b1-4)[Fuc(a1-6)]GlcNAc
# Method in brief: as §1
# [10] = target: Fuc(a1-2)Gal(b1-4)[Fuc(a1-3)]GlcNAc(b1-2)[Fuc(a1-2)Gal(b1-4)[Fuc(a1-3)]GlcNAc(b1-4)]Man(a1-3)[Fuc(a1-2)Gal(b1-4)[Fuc(a1-3)]GlcNAc(b1-2)Man(a1-6)]Man(b1-4)GlcNAc(b1-4)GlcNAc
# Method in brief: as §1
# [11] = target: Fuc(a1-2)Gal(b1-4)[Fuc(a1-3)]GlcNAc(b1-3)Gal(b1-4)[Fuc(a1-3)]GlcNAc
# Method in brief: as §1
# [12] = target: Fuc(a1-2)Gal(b1-4)[Fuc(a1-3)]GlcNAc(b1-3)Gal(b1-4)[Fuc(a1-3)]GlcNAc(b1-3)Gal(b1-4)[Fuc(a1-3)]GlcNAc
# Method in brief: as §1
# [13] = target: Fuc(a1-2)Gal(b1-4)[Fuc(a1-3)]GlcNAc(b1-3)GalNAc
# Method in brief: as §1
# [14] = target: Fuc(a1-2)Gal(b1-4)[Fuc(a1-3)]GlcNAc(b1-3)[Neu5Ac(a2-6)Gal(b1-4)GlcNAc(b1-6)]Gal(b1-4)Glc
# Method in brief: as §1
# [15] = target: Fuc(a1-2)Gal3S(b1-4)GlcNAc
# Method in brief: as §1
# [16] = target: Fuc(a1-2)Gal6S(b1-3)GlcNAc
# Method in brief: as §1
# [17] = target: Fuc(a1-2)Gal6S(b1-3)GlcNAc6S
# Method in brief: as §1
# [18] = target: Fuc(a1-2)Gal6S(b1-4)Glc
# Method in brief: as §1
# [19] = target: Fuc(a1-2)Gal6S(b1-4)Glc6S
# Method in brief: as §1
# [20] = target: Fuc(a1-2)[Gal(a1-3)]Gal
# Method in brief: as §1
# [21] = target: Fuc(a1-2)[Gal(a1-3)]Gal(b1-3)GalNAc
# Method in brief: as §1
# [22] = target: Fuc(a1-2)[Gal(a1-3)]Gal(b1-3)GalNAc(b1-3)Gal(a1-4)Gal(b1-4)Glc
# Method in brief: as §1
# [23] = target: Fuc(a1-2)[Gal(a1-3)]Gal(b1-3)GlcNAc
# Method in brief: as §1
# [24] = target: Fuc(a1-2)[Gal(a1-3)]Gal(b1-3)GlcNAc(b1-2)Man(a1-3)[Fuc(a1-2)[Gal(a1-3)]Gal(b1-3)GlcNAc(b1-2)Man(a1-6)]Man(b1-4)GlcNAc(b1-4)GlcNAc
# Method in brief: as §1
# [25] = target: Fuc(a1-2)[Gal(a1-3)]Gal(b1-3)GlcNAc(b1-2)Man(a1-3)[Fuc(a1-2)[Gal(a1-3)]Gal(b1-3)GlcNAc(b1-2)Man(a1-6)]Man(b1-4)GlcNAc(b1-4)[Fuc(a1-6)]GlcNAc
# Method in brief: as §1
# [26] = target: Fuc(a1-2)[Gal(a1-3)]Gal(b1-3)GlcNAc(b1-3)GalNAc
# Method in brief: as §1
# [27] = target: Fuc(a1-2)[Gal(a1-3)]Gal(b1-3)GlcNAc(b1-6)GalNAc
# Method in brief: as §1
# [28] = target: Fuc(a1-2)[Gal(a1-3)]Gal(b1-4)Glc
# Method in brief: as §1
# [29] = target: Fuc(a1-2)[Gal(a1-3)]Gal(b1-4)GlcNAc
# Method in brief: as §1
# [30] = target: Fuc(a1-2)[Gal(a1-3)]Gal(b1-4)GlcNAc(b1-2)Man
# Method in brief: as §1
# [31] = target: Fuc(a1-2)[Gal(a1-3)]Gal(b1-4)GlcNAc(b1-2)Man(a1-3)[Fuc(a1-2)[Gal(a1-3)]Gal(b1-4)GlcNAc(b1-2)Man(a1-6)]Man(b1-4)GlcNAc(b1-4)GlcNAc
# Method in brief: as §1
# [32] = target: Fuc(a1-2)[Gal(a1-3)]Gal(b1-4)GlcNAc(b1-2)Man(a1-3)[Fuc(a1-2)[Gal(a1-3)]Gal(b1-4)GlcNAc(b1-2)Man(a1-6)]Man(b1-4)GlcNAc(b1-4)[Fuc(a1-6)]GlcNAc
# Method in brief: as §1
# [33] = target: Fuc(a1-2)[Gal(a1-3)]Gal(b1-4)GlcNAc(b1-3)GalNAc
# Method in brief: as §1
# [34] = target: Fuc(a1-2)[Gal(a1-3)]Gal(b1-4)GlcNAc(b1-3)[Fuc(a1-2)[Gal(a1-3)]Gal(b1-4)GlcNAc(b1-6)]GalNAc
# Method in brief: as §1
# [35] = target: Fuc(a1-2)[Gal(a1-3)]Gal(b1-4)GlcNAc(b1-6)GalNAc
# Method in brief: as §1
# [36] = target: Fuc(a1-2)[Gal(a1-3)]Gal(b1-4)[Fuc(a1-3)]Glc
# Method in brief: as §1
# [37] = target: Fuc(a1-2)[Gal(a1-3)]Gal(b1-4)[Fuc(a1-3)]GlcNAc
# Method in brief: as §1
# [38] = target: Fuc(a1-2)[Gal(a1-3)]Gal(b1-4)[Fuc(a1-3)]GlcNAc(b1-3)GalNAc
# Method in brief: as §1
# [39] = target: Fuc(a1-2)[Gal(a1-4)]Gal(b1-4)GlcNAc
# Method in brief: as §1
# [40] = target: Fuc(a1-2)[GalNAc(a1-3)]Gal
# Method in brief: as §1
# [41] = target: Fuc(a1-2)[GalNAc(a1-3)]Gal(b1-3)GalNAc(a1-3)[Fuc(a1-2)]Gal(b1-4)GlcNAc
# Method in brief: as §1
# [42] = target: Fuc(a1-2)[GalNAc(a1-3)]Gal(b1-3)GalNAc(b1-3)Gal(a1-4)Gal(b1-4)Glc
# Method in brief: as §1
# [43] = target: Fuc(a1-2)[GalNAc(a1-3)]Gal(b1-3)GlcNAc
# Method in brief: as §1
# [44] = target: Fuc(a1-2)[GalNAc(a1-3)]Gal(b1-3)GlcNAc(b1-2)Man(a1-3)[Fuc(a1-2)[GalNAc(a1-3)]Gal(b1-3)GlcNAc(b1-2)Man(a1-6)]Man(b1-4)GlcNAc(b1-4)GlcNAc
# Method in brief: as §1
# [45] = target: Fuc(a1-2)[GalNAc(a1-3)]Gal(b1-3)GlcNAc(b1-2)Man(a1-3)[Fuc(a1-2)[GalNAc(a1-3)]Gal(b1-3)GlcNAc(b1-2)Man(a1-6)]Man(b1-4)GlcNAc(b1-4)[Fuc(a1-6)]GlcNAc
# Method in brief: as §1
binder,measurement,setting,value
B1,glycan array binding signal (z-score),[1],0.245
same,glycan array binding signal (z-score),[2],-0.238
same,glycan array binding signal (z-score),[3],-0.217
same,glycan array binding signal (z-score),[4],0.721
same,glycan array binding signal (z-score),[5],-0.283
same,glycan array binding signal (z-score),[6],0.724
same,glycan array binding signal (z-score),[7],-0.033
same,glycan array binding signal (z-score),[8],-0.23
same,glycan array binding signal (z-score),[9],0.191
same,glycan array binding signal (z-score),[10],0.315
same,glycan array binding signal (z-score),[11],-0.226
same,glycan array binding signal (z-score),[12],-0.243
same,glycan array binding signal (z-score),[13],-0.25
same,glycan array binding signal (z-score),[14],-0.194
same,glycan array binding signal (z-score),[15],-0.298
same,glycan array binding signal (z-score),[16],-0.271
same,glycan array binding signal (z-score),[17],1.19
same,glycan array binding signal (z-score),[18],-0.282
same,glycan array binding signal (z-score),[19],0.021
same,glycan array binding signal (z-score),[20],0.133
same,glycan array binding signal (z-score),[21],-0.151
same,glycan array binding signal (z-score),[22],0.076
same,glycan array binding signal (z-score),[23],-0.206
same,glycan array binding signal (z-score),[24],-0.025
same,glycan array binding signal (z-score),[25],-0.25
same,glycan array binding signal (z-score),[26],-0.118
same,glycan array binding signal (z-score),[27],0.127
same,glycan array binding signal (z-score),[28],-0.198
same,glycan array binding signal (z-score),[29],-0.238
same,glycan array binding signal (z-score),[30],-0.194
same,glycan array binding signal (z-score),[31],-0.213
same,glycan array binding signal (z-score),[32],-0.297
same,glycan array binding signal (z-score),[33],-0.273
same,glycan array binding signal (z-score),[34],6.98
same,glycan array binding signal (z-score),[35],-0.305
same,glycan array binding signal (z-score),[36],-0.279
same,glycan array binding signal (z-score),[37],-0.01
same,glycan array binding signal (z-score),[38],-0.279
same,glycan array binding signal (z-score),[39],-0.187
same,glycan array binding signal (z-score),[40],-0.228
same,glycan array binding signal (z-score),[41],-0.281
same,glycan array binding signal (z-score),[42],-0.172
same,glycan array binding signal (z-score),[43],-0.249
same,glycan array binding signal (z-score),[44],-0.203
same,glycan array binding signal (z-score),[45],-0.164
